Over roughly 33,000 sequences, “E-score (-0.5 to 0.5)” has its median near -0.032; the highest 2% begin near 0.36. The list shows a part of the results.
Target: T1, Sko1 (UniProt Q02100)
T1 sequence: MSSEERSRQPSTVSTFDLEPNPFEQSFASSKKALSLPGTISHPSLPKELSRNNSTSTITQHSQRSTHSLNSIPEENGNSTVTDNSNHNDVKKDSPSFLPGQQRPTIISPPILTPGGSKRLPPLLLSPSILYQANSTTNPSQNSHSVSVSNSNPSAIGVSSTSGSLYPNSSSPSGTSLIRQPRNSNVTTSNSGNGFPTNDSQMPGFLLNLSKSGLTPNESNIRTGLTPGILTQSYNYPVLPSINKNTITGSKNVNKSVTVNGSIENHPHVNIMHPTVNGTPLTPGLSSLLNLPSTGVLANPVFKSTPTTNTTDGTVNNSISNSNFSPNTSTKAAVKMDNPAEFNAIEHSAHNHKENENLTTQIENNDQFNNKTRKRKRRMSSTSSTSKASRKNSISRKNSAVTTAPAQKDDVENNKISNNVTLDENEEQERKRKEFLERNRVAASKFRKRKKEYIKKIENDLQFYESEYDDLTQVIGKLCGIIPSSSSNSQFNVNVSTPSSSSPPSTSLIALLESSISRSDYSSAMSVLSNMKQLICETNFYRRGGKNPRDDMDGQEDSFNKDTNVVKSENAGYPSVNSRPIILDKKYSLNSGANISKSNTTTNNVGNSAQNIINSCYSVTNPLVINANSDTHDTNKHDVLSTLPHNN
Assay: PBM E-score (8-mer binding enrichment) (E-score (-0.5 to 0.5)); higher = stronger / more preferred TF binding; most listed sequences are background and not binding sites
Settings: protein concentration: 200 nM; construct: GST-full length
How it was run: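 Universal all-10-mer Agilent arrays, double-stranded by primer extension on fresh or once-stripped slides, were probed with about 100-200 nM GST-tagged yeast transcription factors made by PURExpress. Fluorescent anti-GST detected bound protein, and masliner normalised the scans. E-scores from the Universal PBM Analysis Suite were given to each ungapped eight-base word pooled with its reverse complement.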

Sequence | PBM E-score
AGTATCGA | 0.0829
ACACCCAA | -0.066
AGGCATTG | -0.132
ACGATCTC | -0.0967
ATATCGAA | 0.208
AAGAAAAC | -0.0179
ATACGGAC | -0.149
CCTGGTTC | -0.29
CTATGTCC | -0.0403
AAGGTTCT | -0.0996
CGCGAATA | 0.0754
CAGAAATC | -0.0983
CAGACGTC | 0.322
ACCCACAG | -0.101
CGATTTTA | 0.0927
CCGTGAAC | -0.266
AGAAAATC | 0.124
AGATCGAT | -0.0186
ACGATTTC | 0.187
CAGCGGGA | -0.234
ATCAAGTC | 0.0808
AGTCTCTG | -0.308

Sequence | PBM E-score
ACACACCG | -0.149
AGGAAAAA | 0.0364
GCCGCAAA | -0.0851
ACCCTAAA | 0.108
TATTAGAA | 0.245
ACCATGGG | -0.291
GCAGGTAC | -0.262
GTATACTA | -0.047
CCCATGGG | -0.103
AGAAGCAT | -0.0822
CGTAATGC | 0.454
TCAAGAAA | 0.148
AATACCTA | 0.26
ATGCTACC | -0.0649
CGCTACAG | -0.232
AAAGCGAT | 0.0144
GAGAAAAA | 0.0977
CACCAAGG | -0.289
TCCGGTAA | -0.0164
CAAGACGC | -0.143
GGAAAAAA | 0.0497
ATTCGATA | 0.151

Sequence | PBM E-score
ACATTTCA | 0.0836
ATAGTTCA | 0.0301
ATAATGCA | 0.0309
AATCCCGA | 0.105
GCCGGAAC | -0.27
ACACCCGG | -0.207
AGTTGCAT | 0.0383
CGTGGAAA | 0.214
ACAGCAAA | 0.125
CTTGCTCA | -0.26
ACATACAT | 0.303
CGCAGCAC | -0.109
AGAGCATA | -0.187
AATATGGG | -0.148
GCTCGGAC | -0.235
ATTCTTGC | 0.0625
CGTCTGCC | -0.00999
GTCCACAC | -0.00777
CTGGAATA | 0.0134
GATATATC | 0.117
ACTGAGTA | -0.0657
AAGACCAG | -0.197

Sequence | PBM E-score
AACTACGC | 0.305
CGTTTAGA | 0.122
GAGCGCCA | -0.302
ACGGCGCG | 0.0131
CGTCGACC | 0.0891
ATAGCCGC | -0.0954
ACTCCATA | -0.0483
CACCGCAG | -0.277
GTAGCAAC | 0.181
CACGTTGG | 0.0694
AACAGGCA | -0.0464
CTTACACA | 0.0832
GTCACCCA | 0.0229
AGTAAAGA | 0.0269
AATTTATC | 0.157
ACCTGGAC | -0.316
CTAGATAC | 0.152
AATCGGAG | -0.143
AAAACTAT | 0.0433
CAAGACAA | 0.069
